# Reference: the antibiotic and cytotoxicity screens of Wong et al. (2023)
# The other results are listed elsewhere or left out.
# Columns and labels:
# HSkMC = human skeletal muscle cells; experiment: cytotoxicity call (relative viability < 0.9); conditions: 10 µM
# HepG2 = experiment: cytotoxicity call (relative viability < 0.9); conditions: 10 µM
# S. aureus RN4220 = experiment: growth inhibition call (relative growth <= 0.2); conditions: 50 µM
Structure (SMILES),cytotoxicity call (HSkMC),cytotoxicity call (HepG2),growth inhibition call (S. aureus RN4220)
C[C@@H]1CCCCO[C@H](CN(C)Cc2ccccc2)[C@@H](C)CN([C@@H](C)CO)C(=O)c2cc(NC(=O)Nc3ccccc3)ccc2O1,inactive,inactive,inactive
C[C@@H]1CN([C@H](C)CO)C(=O)c2cc(NC(=O)C3CCCCC3)ccc2O[C@@H](C)CCCCO[C@@H]1CN(C)Cc1ccc2c(c1)OCO2,inactive,active,inactive
Cc1ccc(S(=O)(=O)N(C)C[C@@H]2Oc3ccc(NC(=O)CCN4CCOCC4)cc3CC(=O)N([C@@H](C)CO)C[C@@H]2C)cc1,inactive,inactive,inactive
C[C@H](CO)N1C[C@H](C)[C@H](CN(C)C(=O)Nc2cccc3ccccc23)Oc2ccc(NC(=O)Cc3cn(C)c4ccccc34)cc2C1=O,inactive,inactive,inactive
